Measurements as given in paper PMC4336329 (PLoS ONE, 2015).
In all, about 310,000 compounds went through this assay and about 14,000 (4.5%) showed an effect of 50% or more. Effects have a minus sign here. The list shows a part of the results.

These molecules were tested against human ether-à-go-go-related gene (hERG) potassium channel (human, UniProt Q12809) (assay: primary screen, population patch clamp on CHO cells stably expressing hERG).
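Note: peak tail current of the secondary pulse compared with the same well before compound.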

Chain of human ether-à-go-go-related gene (hERG) potassium channel (Q12809 whole entry, looked up): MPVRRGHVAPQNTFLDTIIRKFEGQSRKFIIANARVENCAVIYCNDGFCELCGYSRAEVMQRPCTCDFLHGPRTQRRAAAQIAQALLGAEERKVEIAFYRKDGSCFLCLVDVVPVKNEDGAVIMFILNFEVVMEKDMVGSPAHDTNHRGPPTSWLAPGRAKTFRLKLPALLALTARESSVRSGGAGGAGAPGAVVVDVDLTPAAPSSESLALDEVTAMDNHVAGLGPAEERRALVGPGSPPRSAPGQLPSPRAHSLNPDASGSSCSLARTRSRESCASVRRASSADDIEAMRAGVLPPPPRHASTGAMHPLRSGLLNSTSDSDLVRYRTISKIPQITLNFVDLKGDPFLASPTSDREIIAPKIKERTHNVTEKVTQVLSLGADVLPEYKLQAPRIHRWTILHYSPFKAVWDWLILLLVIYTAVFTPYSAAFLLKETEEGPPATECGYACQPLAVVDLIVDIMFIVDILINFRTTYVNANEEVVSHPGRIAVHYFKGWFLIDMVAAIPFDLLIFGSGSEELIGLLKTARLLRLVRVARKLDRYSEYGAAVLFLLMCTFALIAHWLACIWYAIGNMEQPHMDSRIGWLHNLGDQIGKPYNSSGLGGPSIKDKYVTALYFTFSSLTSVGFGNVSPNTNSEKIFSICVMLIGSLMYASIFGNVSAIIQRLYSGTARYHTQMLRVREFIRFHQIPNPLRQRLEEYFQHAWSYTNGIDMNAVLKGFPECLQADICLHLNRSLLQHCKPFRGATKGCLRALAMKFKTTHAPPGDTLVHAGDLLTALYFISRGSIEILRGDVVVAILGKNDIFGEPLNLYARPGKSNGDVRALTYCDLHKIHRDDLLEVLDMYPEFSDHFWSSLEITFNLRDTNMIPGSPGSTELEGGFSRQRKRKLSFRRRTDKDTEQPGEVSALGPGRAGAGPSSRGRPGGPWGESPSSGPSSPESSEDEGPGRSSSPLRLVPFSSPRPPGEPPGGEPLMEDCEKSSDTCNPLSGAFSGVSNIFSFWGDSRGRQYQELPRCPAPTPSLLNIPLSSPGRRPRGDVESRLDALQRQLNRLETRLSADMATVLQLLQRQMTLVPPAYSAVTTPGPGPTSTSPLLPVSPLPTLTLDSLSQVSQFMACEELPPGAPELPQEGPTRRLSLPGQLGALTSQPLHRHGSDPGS

Point of comparison: `CCOC(=O)Nc1nnc(-c2ccc(OC)c(OC)c2)s1`, “hERG current change (%, negative = inhibition) at 10uM” value 2.95%. Against it:
- O=C(Oc1ccc2c(c1)OCO2)c1cc2c(s1)CCC2 — higher, 8.84%
- CCC(C)(C)NC(=O)C(c1ccc(OC)cc1)N(C(=O)CCC(=O)Nc1cc(C)on1)c1cccc(OC)c1 (centres unmarked) — lower, 1.47%
- CC(=O)Nc1ccc(NC(=O)c2cc(-c3ccc(C)c(C)c3O)n[nH]2)cc1 — higher, 18.5%
- N/C(=N\OC(=O)c1ccc(=O)n(Cc2ccccc2)c1)c1ccccn1 — higher, 51.6%
- Cc1ccccc1-c1nc(CS(=O)(=O)CC(=O)NCCCN2CCOCC2)c(C)o1 — lower, -0.453%
- CC(OC(=O)c1ccco1)C(=O)Nc1ncc(Cl)cc1Cl (centres unmarked) — higher, 7.63%
- CC(=O)Oc1ccc(-c2cccc(C(=O)N(C)c3ccc(O)cc3)c2)cc1 — lower, -17.8%
- Cc1ccc(S(=O)(=O)N2CCOC2CNC(=O)C(=O)NCCN2CCOCC2)cc1 (centres unmarked) — higher, 10.6%
- COc1ccc(C(C(=O)NC2CCCC2)N(Cc2ccccc2)C(=O)c2nsc(Cl)c2Cl)cc1 (centres unmarked) — higher, 6.84%
- COC(=O)c1cc(-c2ccccc2)on1 — lower, -8.87%
- COc1ccccc1N(CC(O)CN1CCCC1)S(=O)(=O)c1ccccc1 (centres unmarked) — lower, -4.48%
- COc1cc(C(=O)NCc2cccc(Cl)c2)ccc1OCC(=O)N1CCOCC1 — lower, -13.2%
- C=CC(COCc1ccccc1)N(Cc1ccccc1)S(=O)(=O)c1ccccc1Br (centres unmarked) — lower, 2.07%
- Cc1oc(C(N)=O)cc1COc1ccc(C(N)=O)cc1 — higher, 10.5%
- CN1CCC(=NNC(=O)C(=O)Nc2ccccc2)CC1 — higher, 6.07%
- OCCC1CN(Cc2ccc(F)cc2)CCN1CCc1ccccc1 (centres unmarked) — lower, -74.2%
- CC(C)(C)NC(=O)C1CCCN(S(=O)(=O)c2cccc3cccnc23)C1 (centres unmarked) — lower, 2.94%
- CCN(CC)P(=O)(Nc1cccc(C(F)(F)F)c1)c1ccc(N(C)C)cc1NC(=O)c1ccco1 (centres unmarked) — lower, 1.31%
- COCCSc1nc(N)c(NC(=O)c2ccc(OC)cc2)c(=O)[nH]1 — higher, 25.2%
- CCOC(=O)CC1C(=O)NCCN1c1nc2ccc(C)cn2c(=O)c1/C=C1\SC(=S)N(C(C)CC)C1=O (centres unmarked) — lower, -2.49%
- O=S(=O)(NC1CCN(Cc2ccccc2)CC1)c1ccc(Cl)cc1 — lower, -41.3%
- COc1cccc(/C=C/C(=O)Nc2ccc(N3CCOCC3)cc2)c1OC — lower, -7.24%
- CCC(C(=O)NCc1ccco1)n1nc(C)c2c(C)n(-c3ccccc3)nc2c1=O (centres unmarked) — lower, -8.91%
- CCCC1(c2ccccc2)NC(=O)N(CC(=O)c2[nH]c(C)c(C(=O)OCC)c2C)C1=O (centres unmarked) — higher, 12.5%
- COc1cc(/C=C/C(=O)OCC(=O)NCc2ccco2)cc(OC)c1OC — higher, 16.3%
- C=CCn1c(SCC(=O)NCc2ccccc2)nnc1-c1ccccc1O — lower, -3.41%
- CC(=O)c1cccc(CN2CCCC(C(=O)Nc3cccc(-n4cccn4)c3)C2)c1 (centres unmarked) — lower, -23.9%
- Cc1ccc(NC(=O)CN2CCOCC2)cc1Cl — higher, 8.02%
- CN(Cc1cn(C)nc1-c1ccc(Oc2ccccc2)cc1)CC1COCCO1 (centres unmarked) — lower, -44.4%
- Cn1c(S(=O)(=O)c2ccc([N+](=O)[O-])cc2)nc(Br)c1Br — lower, 1.03%
- COc1cc(-c2nnc(CSc3nnc(Nc4ccc(C(C)C)cc4)s3)o2)cc(OC)c1OC — lower, -25.8%
- CC(C)Cc1nnc(NC(=O)CCC(=O)N2CCOCC2)s1 — lower, -10.7%
- CCOc1ccc(CCNC(=O)COC(=O)c2ccc3c(c2)OCCO3)cc1OCC — lower, -6.17%
- O=C1NC(Cc2ccccc2)C(=O)N1Cc1cc([N+](=O)[O-])cc2c1OCOC2 (centres unmarked) — higher, 7.47%
- CC(=O)Nc1nonc1-c1nc2ccccc2n1Cc1ccccn1 — lower, -24.7%
- C#CCOCCOCCOCCNc1nc(N2CCN(C(=O)CCCCCCCCCCNC(=O)Cn3cc(C[C@@H](C)O)nn3)CC2)nc(N2CCN(C(=O)CCCCCCCCCCNC(=O)[C@@H](CCC(=O)O)n3cc(CCCCCN)nn3)CC2)n1 — higher, 10.7%
- COC(=O)c1ccccc1S(=O)(=O)N1CCC(C(=O)NC2CCCCC2C)CC1 (centres unmarked) — lower, -1.87%
- Clc1cccc(CSc2nnc(-c3ccccn3)n2Cc2ccco2)c1 — lower, -35.7%
- CCN(CC(=O)Nc1ccc2c(c1)OCCO2)C(=O)c1ccc([N+](=O)[O-])s1 — lower, -9.59%
- CC(C)Oc1cccc(C(=O)C2CCCN(C(=O)c3cc(C(F)(F)F)[nH]n3)C2)c1 (centres unmarked) — lower, -14.4%
- Cc1ccc(NC(=O)CN2C(=O)CNC2=O)cc1 — higher, 8.33%
- COc1cccc(N(CC(=O)N2CCc3ccccc3C2)S(C)(=O)=O)c1 — lower, -26.7%
- CN(Cc1nc(-c2ccccn2)no1)S(=O)(=O)c1ccc(Br)cc1 — lower, -4.39%
- FC(F)(F)c1ccc(-c2noc(CN3CCCN(C4CCCCC4)CC3)n2)cc1 — lower, -75.7%
- CCOC(=O)C1=C(COC(=O)COc2ccc(Br)cc2)NC(=O)NC1C (centres unmarked) — lower, 2.16%
- Cc1ccc(Cn2c(=N)c(C(=O)NCC3CCCO3)cc3c(=O)n4cccc(C)c4nc32)cc1 (centres unmarked) — lower, -81.5%
- COc1ccc(-c2cc(CN3C(=O)c4ccccc4C3=O)on2)cc1 — higher, 4.86%
- COc1ccc2c(C(=O)CCl)c[nH]c2c1 — lower, -1.84%
- CCOc1ccc2[nH]c(=O)c(CN(Cc3nnnn3CCc3ccccc3)CC3CCCO3)cc2c1 (centres unmarked) — lower, -45.4%
- CC(C)(CN1CCOCC1)NS(=O)(=O)c1ccccc1 — lower, -1.36%
- Cc1cccn2c(=O)nc(SCC(=O)NCc3ccccc3Cl)nc12 — lower, -13.4%
- Cc1cc(C(=O)Nc2ccc(Cl)cc2)n(-c2ccccc2)n1 — lower, 1.48%
- CC1CCc2sc3c(c2C1)c1ncnn1c(=O)n3CC(=O)c1ccc(Br)cc1 (centres unmarked) — higher, 14.2%
- CCN1C(=O)N(S(=O)(=O)C(F)(F)F)[C@@H](c2ccccc2)C(C(=O)OC)=C1C — lower, 1.23%
- O=C(NCCOC(=O)c1ccc(C(=O)OCCNC(=O)c2ccccc2)o1)c1ccccc1 — higher, 16.3%
- O=C(Cn1cc2c(n1)CCCC2)NCc1ccccn1 — higher, 11.9%
- Cc1[nH]c(=O)[nH]c(=O)c1/C=N/NC(=O)[C@H](C)NC(=O)OC(C)(C)C — higher, 4.09%
- Cc1ccc(C2=NN(CC(=O)O)C(=O)CC2)cc1 — lower, -51.4%
- Cc1noc(C)c1COC(=O)c1cc(F)c(F)cc1Cl — lower, 1.55%
- Cc1nc(N2CCCCC2)c2ccsc2n1.O=C(O)C(=O)O — lower, -2.23%
- C=CCn1c(SCc2cc([N+](=O)[O-])cc3c2OCOC3)nc2cc(C(=O)O)ccc2c1=O — lower, -7.17%
- COc1ccc(N(CC(=O)NCc2ccco2)S(=O)(=O)c2ccc(OC)c(OC)c2)cc1 — lower, -19.6%
- CC(NC(=O)CCN1N=C(c2ccccc2)CCC1=O)c1ccc2c(c1)OCCO2 (centres unmarked) — higher, 10.3%
- CCN1C[C@@]2(COC)C3[C@@H](OC)[C@H]4[C@@H]1[C@@]3(C1C[C@H]3[C@H](OC(=O)c5ccccc5)C1[C@]4(OC(C)=O)C[C@H]3OC)[C@@H](OC)C[C@H]2O (some centres unmarked) — lower, -14.1%
- Cc1ccc(NC(=O)CN(C)C(=O)COC(=O)/C=C/c2cccs2)cc1 — higher, 16.6%
- Cc1cc(F)ccc1S(=O)(=O)NCC(c1ccc2c(c1)OCO2)N1CCOCC1 (centres unmarked) — lower, -16.8%
- Cl.ClC(CCN1CCN(Cc2ccccc2)CC1)c1ccccc1 (centres unmarked) — lower, -20.6%
- Cc1cc(C)nc(N2CCC(C(=O)Nc3cccc(C(F)(F)F)c3)CC2)n1 — lower, -17%
- COc1cc(/C=N/NC(=S)NCC2CCCO2)cc(OC)c1OC (centres unmarked) — lower, -10.5%
- CC1(C)Cc2noc(N)c2C(C)(C)N1OC(=O)c1ccccc1 — lower, -11.8%
- CCN(C(=O)CN1CCN(C)CC1)c1cccc2ccccc12.O=C(O)C(=O)O — lower, -7.33%
- Cc1ccc(O)c(NC(=S)NC(=O)/C=C/c2ccccc2)c1 — higher, 18.4%
- CCCCC(=O)N1CCN(c2nc3ccc(Cl)cc3s2)CC1 — lower, -71.1%
- C=CCOc1cccc(C2C(C(=O)c3ccco3)=C(O)C(=O)N2CCN2CCOCC2)c1 (centres unmarked) — higher, 6.65%
- CSCCC(NC(=O)COc1ccccc1)C(=O)NCCOc1ccccc1 (centres unmarked) — lower, -4.01%
- CC1(C)CC(=O)c2sc(NC(=O)CN3C(=O)CCC3=O)nc2C1 — higher, 4.87%
- Cc1ccc(OCC(=O)Nc2cccc(S(=O)(=O)N3CCCCCC3)c2)c([N+](=O)[O-])n1 — lower, -0.913%
- O/N=C1/CCSc2ccccc21 — higher, 3.5%
- Oc1ccc(/C=N/Nc2nc(-c3ccc(Cl)cc3)cc(C(F)(F)F)n2)cc1 — lower, -11.4%
- COC(=O)CCCn1c(C)cc(C(=O)CCl)c1C — lower, -4.98%
- COc1ccc(S(=O)(=O)N2CCC(n3cnc4cc(C(F)(F)F)ccc43)CC2)cc1 — lower, -73.1%
- COc1cccc(NC(=O)Nc2ccc3c(c2)OCO3)c1 — higher, 22.6%
